Results from paper PMC4336329 (PLoS ONE, 2015).
About 14,000 (4.5%) of roughly 310,000 compounds showed an effect of 50% or more. The effect is printed as a negative number. This is one part of the list.

Molecular target: human ether-à-go-go-related gene (hERG) potassium channel (human, UniProt Q12809)
Assay: primary screen, population patch clamp on CHO cells stably expressing hERG
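Note: peak tail current of the secondary pulse compared with the same well before compound.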

Sequence of human ether-à-go-go-related gene (hERG) potassium channel (Q12809 whole entry, looked up): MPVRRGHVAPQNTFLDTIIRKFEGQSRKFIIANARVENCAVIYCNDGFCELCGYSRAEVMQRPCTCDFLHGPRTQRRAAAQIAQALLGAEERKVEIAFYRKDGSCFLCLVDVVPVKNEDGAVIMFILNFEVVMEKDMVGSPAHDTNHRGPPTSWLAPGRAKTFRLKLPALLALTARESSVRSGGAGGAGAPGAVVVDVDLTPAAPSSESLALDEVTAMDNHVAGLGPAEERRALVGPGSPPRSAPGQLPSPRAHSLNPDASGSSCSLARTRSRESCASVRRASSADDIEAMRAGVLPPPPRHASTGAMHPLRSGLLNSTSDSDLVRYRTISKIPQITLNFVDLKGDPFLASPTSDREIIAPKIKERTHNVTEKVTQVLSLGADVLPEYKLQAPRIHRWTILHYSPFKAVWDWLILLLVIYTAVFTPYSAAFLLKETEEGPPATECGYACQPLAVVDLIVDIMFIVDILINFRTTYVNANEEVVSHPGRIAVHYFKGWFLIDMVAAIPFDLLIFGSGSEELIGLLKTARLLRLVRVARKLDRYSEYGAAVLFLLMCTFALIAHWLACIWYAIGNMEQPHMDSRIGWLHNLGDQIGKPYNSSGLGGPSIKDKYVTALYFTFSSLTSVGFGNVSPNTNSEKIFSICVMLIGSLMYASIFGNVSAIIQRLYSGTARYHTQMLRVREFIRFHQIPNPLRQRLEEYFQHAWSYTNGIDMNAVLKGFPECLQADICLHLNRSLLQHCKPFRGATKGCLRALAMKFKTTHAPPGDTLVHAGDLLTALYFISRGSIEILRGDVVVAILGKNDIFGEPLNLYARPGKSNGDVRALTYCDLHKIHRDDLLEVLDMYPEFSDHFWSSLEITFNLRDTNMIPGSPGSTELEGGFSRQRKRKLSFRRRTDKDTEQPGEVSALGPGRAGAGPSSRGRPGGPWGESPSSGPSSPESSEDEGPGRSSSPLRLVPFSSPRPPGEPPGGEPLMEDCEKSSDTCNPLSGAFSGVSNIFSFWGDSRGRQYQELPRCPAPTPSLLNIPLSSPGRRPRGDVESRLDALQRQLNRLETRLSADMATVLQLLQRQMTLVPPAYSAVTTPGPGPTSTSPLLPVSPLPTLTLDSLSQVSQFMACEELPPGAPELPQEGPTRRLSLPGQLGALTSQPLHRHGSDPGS

| Structure (SMILES) | hERG current change (%, negative = inhibition) at 10uM [%] |
| --- | --- |
| O=C(OCn1nnc2ccccc2c1=O)C1COc2ccccc2O1 (centres unmarked) | 12.7 |
| CCS(=O)(=O)c1nc(S(=O)(=O)c2ccc(Cl)cc2)c(N2CCC3(CC2)OCCO3)s1 | -51.5 |
| Cc1cc(C)n2[nH]c(=O)c(N=Nc3ccc(S(N)(=O)=O)cc3)c2n1 | 26.4 |
| COc1ccc(OC)c(C2C(C#N)=C(N)N(N(C)C)C3=C2C(=O)CCC3)c1 (centres unmarked) | -6.02 |
| CC(C)=CCN1CCN(Cc2cccn2-c2nccs2)CC1CCO (centres unmarked) | -34.1 |
| Fc1ccc(CSc2ncnc3sc4c(c23)CCCC4)cc1 | 18.4 |
| Cn1c(=O)c2c(nc(NCc3ccco3)n2Cc2ccc(Cl)cc2Cl)n(C)c1=O | 3.8 |
| Clc1cc2nc[nH]c2cc1Cl | -14.9 |
| CCOC(=O)Cc1csc(NC(=O)C(NC(=O)C2CCCCC2)C(C)C)n1 (centres unmarked) | 5.13 |
| O=C(CCn1c(=O)[nH]c2ccsc2c1=O)Nc1ccc(F)c(F)c1 | 21 |
| O=Cc1sc(Nc2ccccc2)nc1Cl | -13.1 |
| Cc1ccc(C(=O)NCCc2nnc3ccc(NCc4ccc5c(c4)OCO5)nn23)cc1 | 1.81 |
| O=C(Cn1c(=O)oc2cc(S(=O)(=O)N3CCCCCC3)ccc21)NC1CCCCC1 | 10 |
| COC(=O)C1CCN(C(=O)C2CCCCC2)CC1 | -1.12 |
| Cc1ccccc1NC(=O)C1CCCN(S(=O)(=O)c2c(C)noc2C)C1 (centres unmarked) | -4.83 |
| O=C(OCCOCCN=C1NS(=O)(=O)c2ccccc21)C1CC(=O)N(c2ccccc2)C1 (centres unmarked) | 13.1 |
| COP1(=O)C[C@@H](O)[C@@H](O)[C@@H](COCc2ccccc2)O1 (some centres unmarked) | 11 |
| O=C(CSCc1ccccc1)N1CCN(c2ccccc2)CC1 | -25.7 |
| Cc1cc(C)c2c(=O)[nH]c(SCC(=O)NCCc3ccccc3)nc2n1 | -2.47 |
| COc1ccc(OC)c(NC(=O)COC(=O)c2c(C)noc2C)c1 | 12.6 |
| COC(=O)c1ccc(CSc2cc(C)c3cc(C)cc(C)c3n2)o1 | 20.8 |
| CCOC(=O)C1CCN(C(=O)c2ccc(Cl)c(Cl)c2)CC1 | -15.4 |

| Structure (SMILES) | hERG current change (%, negative = inhibition) at 10uM [%] |
| --- | --- |
| Cc1c(NS(=O)(=O)c2ccc(N3CCN(C)CC3)c([N+](=O)[O-])c2)c(=O)n(-c2ccccc2)n1C | 13.7 |
| Cc1csc(CN(C)C(=O)C2CCC(=O)N(CCN(C)C)C2)n1 (centres unmarked) | -8.18 |
| Cc1cccc(CSCCNC(=O)c2ccc(N(C)S(=O)(=O)c3ccccc3)cc2)c1 | -4.05 |
| COc1ccc(Cl)cc1-n1c(=S)sc2c(=O)[nH]c(SCC(=O)NCC3CCCO3)nc21 (centres unmarked) | 12.1 |
| CC(C)[C@@H](NC(=O)C1CCC(CNC(=O)[C@H](Cc2ccccc2)NC(=O)OC(C)(C)C)CC1)C(=O)O (some centres unmarked) | 11.8 |
| COc1ccc(C(=O)N/N=C(\C)c2ccc3c(c2)C2C=CCC2C(c2ccccc2)N3)cc1 (centres unmarked) | -1.79 |
| Cc1ccsc1/C=N/NC(=O)Cc1cc(=O)[nH][nH]1 | 2.71 |
| CN(N)c1nc(-c2ccccc2)cc(-c2ccccc2)n1 | 21.7 |
| COc1ccc2nc(/N=C/c3c(C)[nH]n(-c4ccc(C)cc4)c3=O)sc2c1 | -10.5 |
| COC(=O)C(O)(c1ccc(N(C)C(=O)OC(C)C)cc1)C(F)(F)F (centres unmarked) | 15.5 |
| CCn1c(C)nnc1SCC(=O)NC1CCCC1 | -2.2 |
| COC(=O)c1sccc1NC(=O)CSc1ccccc1NS(=O)(=O)c1ccc(Br)cc1 | 23.3 |
| COC(=O)c1ccc(Oc2c(C)oc3c(CN4CCN(C)CC4)c(O)ccc3c2=O)cc1 | 11.9 |
| CN(C)c1nc(-c2ccccc2)ns1 | 11.7 |
| O=C(CSc1cccc2cccnc12)N1CCCC1 | 12 |
| Cc1ccc(C)c(-c2csc(Nc3ncccn3)n2)c1 | 34.4 |
| CCOC(=O)c1c(NC(=O)c2cc(-c3ccc(Cl)s3)nc3ccccc23)sc(C(N)=O)c1C | 5.32 |
| Cc1csc2ncc(C(=O)Nc3ccc(C(F)(F)F)cc3)c(=O)n12 | 14.3 |
| CC/C(=N\O)c1c(O)c2c(n(-c3ccccc3)c1=O)CCCC2 | 5.22 |
| Cc1cc(OCC(=O)N2CCC(C(=O)O)CC2)c2c3c(c(=O)oc2c1)CCCC3 | 1.41 |
| COc1ccccc1C(=O)NCC(=O)OCc1ccc(Br)cc1 | -41.7 |
| COC(=O)c1cc(CSc2nnc(NC3CCCCC3)s2)oc1C | -10.1 |

| Structure (SMILES) | hERG current change (%, negative = inhibition) at 10uM [%] |
| --- | --- |
| COc1ccc(CC(=O)N2CCC(Nc3nc4ccccc4n3Cc3ccc(F)cc3)CC2)cc1 | -71.7 |
| C/C(=N\NC(=O)c1cccnc1)c1cc(C)oc1C | 3.69 |
| Cc1ccc(NC(=O)CN2C(=O)CN=C(c3ccccc3)c3cc(Cl)ccc32)cc1 | -11.8 |
| CCOc1ccccc1Nc1nc2ccccc2n1C(C)C | 15.4 |
| CN1CCN(C(=O)c2ccc(S(=O)(=O)Nc3ccccc3)cc2)CC1.Cl | -10.4 |
| CCC(C)N1CCN(S(=O)(=O)c2ccc(NC(C)=O)cc2)CC1 (centres unmarked) | 12.7 |
| CC(=O)c1ccc(Oc2nc(-c3cccnc3)nc3ccccc23)cc1 | 37.7 |
| CC[C@H](C)NC(=O)c1ccc(Cn2c(=S)[nH]c3c([nH]c4ccc(OC)cc43)c2=O)cc1 | -1.82 |
| COc1ccc(/C=C/C(=O)OCC(=O)Nc2c(C)cccc2C)cc1 | 12.5 |
| O=C(O)C1CC(=O)N(CCOc2ccccc2)C1 (centres unmarked) | 11.1 |
| COc1ccc2cc(C3CC(c4cccs4)=NN3C(C)=O)c(Cl)nc2c1 (centres unmarked) | 14.8 |
| O=C(CCn1nc(-c2ccccc2)c2ccccc2c1=O)NCC1CCCO1 (centres unmarked) | -1.21 |
| O=C(CN1C(=O)c2ccccc2S1(=O)=O)N1CCN(c2cccc(Cl)c2)CC1 | 0.0187 |
| NC(Cc1cc(O)c(O)cc1O)C(=O)O (centres unmarked) | 7.9 |
| CC(C)CCn1c(SCC(=O)c2ccccc2)nc2c1c(=O)[nH]c(=O)n2C | 17.7 |
| CCOC(=O)N1CCN(S(=O)(=O)c2ccc(C(=O)Nc3sc4c(c3C(=O)OC)CCN(C)C4)cc2)CC1.Cl | -0.173 |
| CCOc1cc(S(=O)(=O)N2CCN=C2Cc2ccccc2)ccc1F | -26.4 |
| CCCn1c(SCC(N)=O)nnc1-c1ccco1 | 12.6 |
| CCOc1ccc(-c2c(C(=O)N/N=C/c3ccc(OC(C)C)cc3)nnn2-c2nonc2N)cc1 | 2.86 |
| CCOC(=O)C1CCCN(C(=O)c2cc(-c3ccncc3)nc3ccccc23)C1 (centres unmarked) | -32.4 |
| COc1ccccc1S(=O)(=O)NCc1ccc(C(=O)N(C)Cc2ccc(F)cc2)cc1 | -12.5 |
| CCOc1ccc(C2SCC(=O)N2c2c(C)n(C)n(-c3ccccc3)c2=O)cc1 (centres unmarked) | -2.35 |

| Structure (SMILES) | hERG current change (%, negative = inhibition) at 10uM [%] |
| --- | --- |
| CCOC(CNC(=O)Cn1nc(C)c2ccccc21)OCC | -26.3 |
| CC(C)c1ccc(CN2C(=O)c3ccccc3S2(=O)=O)cc1 | 16.8 |
| COc1ccc(OC)c(-c2cc(C(=O)N3CCN(c4ncccn4)CC3)c3ccccc3n2)c1 | -38.4 |
| C/C=C(/C)C(=O)Nc1cccc(C2=NOC3(C2)C[C@@H](C(N)=O)N(C(=O)CC(c2ccccc2)c2ccccc2)C3)c1 (some centres unmarked) | -11.2 |
| CCN(Cc1ccccc1)c1ccc(N=Nc2nn(C)c(C)c2[N+](=O)[O-])cc1 | -8.31 |
| Cc1ccccc1CN1CCN(C(=O)Cc2ccccc2)CC1.Cl | 22.1 |
| Cl.Oc1ccc(CCNc2c3ccccc3nc3ccccc23)cc1O | -68.2 |
| O=C(c1cc([N+](=O)[O-])ccc1N1CCOCC1)N1CCN(S(=O)(=O)c2cc(Cl)ccc2Cl)CC1 | -32.3 |
| CCOC(=O)COc1cccc2c(=O)n(CC(=O)N3CCc4ccccc43)ccc12 | 14.5 |
| Fc1ccccc1CSc1nc2ncccc2[nH]1 | -8.71 |
| NC(=O)NC(CC(=O)OCC(=O)NC(=O)NCc1ccco1)c1ccc(Cl)cc1 (centres unmarked) | -3.2 |
| O=S(=O)(c1ccc(-c2cc(C(F)(F)F)on2)s1)N1CCCC1 | 6.3 |
| Cc1cc(=O)oc2c(C)c(OCC(=O)N3CCN(c4ccc(F)cc4)CC3)ccc12 | -65.9 |
| CCc1[nH]nc(C(=O)N2CCCC(CO)(Cc3ccc(F)cc3F)C2)c1C (centres unmarked) | 2.92 |
| O=C(Cn1cnc([N+](=O)[O-])c1)NCCc1ccccc1 | 1.96 |
| CN(C)c1nc(N)nc(-c2nc3ccccc3s2)n1 | -3.77 |
| O=C(CSc1ccsc1[N+](=O)[O-])N1CCN(c2ccccn2)CC1 | -0.719 |
| COCCCNC(=S)N(Cc1ccccc1)Cc1ccccc1 | -11.2 |
| COc1ccc(C2c3ccc4ccccc4c3Oc3ncn(CCN4CCOCC4)c(=N)c32)cc1OC (centres unmarked) | -53.4 |
| O=C(/C(=C(\O)c1ccccc1)c1nc2ccccc2[nH]1)c1ccccc1 | 2.74 |
